{
  "source": "PubChem BioAssay AID1347417",
  "about": "(National Center for Advancing Translational Sciences (NCATS), 2020)",
  "note": "Hit rate of the full screen: of about 120,000 compounds, about 5,300 (4.4%) were called active. The inconclusive results got no clear call from the source; some entries with a clear call stand among them for comparison. Calls follow the shape of the dose curve; as a rule, active = well fitted inhibition curve with a large enough effect; inconclusive = small, poorly fitted or top-dose-only effect; inactive = no such curve, though single readings can be large or run the other way. A potency beside an inconclusive call is a rough fit, not a confirmed value. Potency is read from the fitted curve at half-maximal effect; tags tell the direction and shape of the fitted curve.",
  "data": [
    {"assay": "qHTS Primary assay for Inhibitors of Plasmodium falciparum Dd2 growth in vitro; also: nearly all actives have a fitted effect of over 65% in size", "conditions": "P. falciparum Dd2 growth, SYBR Green, 72 h; series mostly up to 28.9 µM", "summary_of_the_method": "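Infected erythrocytes (Dd2, 0.3% parasitemia, 2.5% hematocrit final) are added to compound in RPMI-1640/Albumax II medium, grown 72 h at 37C in low oxygen, then lysed with saponin/Triton-X containing SYBR Green and read by fluorescence.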", "values": [
      {"smiles": "Cc1cc(C)n(Cc2ccc(C(=O)N3CC[C@H](CO)[C@H](O)C3)cc2)n1", "Potency": "inactive"},
      {"smiles": "COc1cncc(CN2CCc3ncc(C(=O)Nc4ccccc4)n3CC2)c1", "Potency": "inconclusive: 8.91 µM [inhibitor, partial curve, poor fit]"},
      {"smiles": "COc1ccc(Nc2c(-c3ccccn3)nc3ccc(Cl)cn23)cc1", "Potency": "inactive"},
      {"smiles": "FC(F)(F)c1ccc(CN2CCCC3(CC(c4ccccc4)=NO3)C2)cc1", "note": "(centres undefined)", "Potency": "inconclusive: 10 µM [inhibitor, partial curve, poor fit]"},
      {"smiles": "COc1ccc(C(=O)NCCn2ccn3nc(-c4cccc(OC)c4)cc3c2=O)cc1", "Potency": "inconclusive: 0.708 µM [inhibitor, partial curve, poor fit]"},
      {"smiles": "CCc1ccc(-n2c(=O)c3cccnc3n2CC(=O)NCc2ccc(C)cc2)cc1", "Potency": "inconclusive: 17.8 µM [inhibitor, single point]"},
      {"smiles": "COc1ccc(Cl)cc1NC(=O)CSC1=Nc2ccccc2C2=NC(CC(=O)NCc3cccs3)C(=O)N12", "note": "(centres undefined)", "Potency": "active: 11.2 µM"},
      {"smiles": "Cc1cccc(N(C)C(=O)Cn2cccc2-c2nc(-c3ccccc3)no2)c1", "Potency": "inconclusive: 2.24 µM [inhibitor, full curve]"},
      {"smiles": "COc1ccc(S(=O)(=O)N2C[C@@H]3C[C@H](C2)c2c(NC(=O)C4CCCCC4)ccc(=O)n2C3)cc1", "Potency": "inconclusive: 4.47 µM [inhibitor, partial curve, poor fit]"},
      {"smiles": "Cc1ccccc1-c1cnc2[nH]cc(CC(=O)Nc3cccnc3)c2c1", "Potency": "inconclusive: 17.8 µM [inhibitor, single point]"},
      {"smiles": "CN(C)Cc1ccccc1-c1ccc2n(c1=O)C[C@H]1C[C@@H]2CN(C(=O)c2cccs2)C1", "Potency": "inconclusive: 11.2 µM [inhibitor, partial curve, poor fit]"},
      {"smiles": "Cc1ccccc1NC(=O)N1CCC(CCNC(=O)c2ccc3nc[nH]c3c2)CC1", "Potency": "inconclusive: 15.8 µM [inhibitor, single point]"},
      {"smiles": "Cc1cc2c(N3CCC(NCc4noc(C5CCC5)n4)CC3)ncnc2s1", "Potency": "inconclusive: 10 µM [inhibitor, single point]"},
      {"smiles": "O=C1NC(=O)C(c2ccccn2)(C2CCN(C(=O)Cn3cnnn3)CC2)N1", "note": "(centres undefined)", "Potency": "inactive"},
      {"smiles": "COc1cccc(CNC(=O)[C@@H]2C[C@@H](O)CN2C2CCN(C(=O)c3ccccc3OC)CC2)c1", "Potency": "inconclusive: 20 µM [inhibitor, single point]"},
      {"smiles": "COc1cccc(C(=O)N2CCC(N3C[C@H](O)C[C@H]3C(=O)NCc3cc(F)ccc3F)CC2)c1", "Potency": "inconclusive: 11.2 µM [inhibitor, single point]"},
      {"smiles": "COc1ccc(-c2nn(-c3cccc(F)c3)c3c2cnc2cc(OC)c(OC)cc23)cc1", "Potency": "inconclusive: 3.98 µM [inhibitor, partial curve]"},
      {"smiles": "CCCc1noc(-c2ccn3c(CNC(=O)c4ccc(C)c(F)c4)nnc3c2)n1", "Potency": "inconclusive: 1.78 µM [inhibitor, partial curve, poor fit]"},
      {"smiles": "O=C(CCCc1ccccc1)N1CCC2(CC1)CC(Cc1nc(-c3cccnc3)no1)CCO2", "note": "(centres undefined)", "Potency": "inconclusive: 11.2 µM [inhibitor, single point]"},
      {"smiles": "COc1ccccc1-c1noc(-c2ccc(NC(C)C)c([N+](=O)[O-])c2)n1", "Potency": "inconclusive: 12.6 µM [inhibitor, partial curve]"},
      {"smiles": "O=C1CC2CCN(C(=O)c3ccc4c(c3)OCO4)CC2CCN1", "note": "(centres undefined)", "Potency": "inactive"},
      {"smiles": "CCOc1ccccc1NC(=O)N[C@H](Cc1ccccc1)C(=O)N1CCOCCNC(=O)CC1", "Potency": "inconclusive: 2.24 µM [inhibitor, partial curve, poor fit]"},
      {"smiles": "CN(C)C1CCN(c2ccc(-c3nc(CCCc4ccccc4)no3)cn2)CC1", "Potency": "inconclusive: 17.8 µM [inhibitor, single point]"},
      {"smiles": "COc1ccc(Cn2c(=O)[nH]c3cc(C(=O)N4CCN(c5cc(Cl)ccc5C)CC4)ccc3c2=O)cc1", "Potency": "inactive"},
      {"smiles": "O=C(c1ccccc1F)N1CCC2(CC1)CC(c1cccnc1)=NO2", "Potency": "inactive"},
      {"smiles": "O=C(Nc1ccc(F)cc1)c1ccc2c(c1)OCCN(c1ccccc1)C2", "Potency": "inconclusive: 3.16 µM [inhibitor, partial curve, poor fit]"},
      {"smiles": "Cc1cc(C)c(CNC(=O)c2c(C)sc3ccn(C)c(=O)c23)c(C)c1", "Potency": "inactive"},
      {"smiles": "c1cncc(CN2CCCCC2c2nc(CCOCC3CCOCC3)no2)c1", "note": "(centres undefined)", "Potency": "inconclusive: 5.01 µM [inhibitor, partial curve]"},
      {"smiles": "CC1=C[C@@H](CNC(=O)CC2(CC(=O)O)CCCC2)[C@H](C(C)C)C[C@H]1Cc1nc2c(C)cccc2[nH]1", "Potency": "inactive"},
      {"smiles": "CN1C[C@@H](NC(=O)COc2ccccc2)C[C@H]1c1nc(-c2ccc3c(c2)OCO3)no1", "Potency": "inconclusive: 1.78 µM [inhibitor, full curve, poor fit]"},
      {"smiles": "CCc1ccc(CNC(=O)c2nnn3cc(C)[nH]c(=O)c23)cc1", "Potency": "active: 7.94 µM"},
      {"smiles": "COCCNC(=O)c1ccc(OC2CCN(Cc3ccc(OC)cc3F)CC2)c(Cl)c1", "Potency": "inconclusive: 3.98 µM [inhibitor, partial curve]"},
      {"smiles": "O=C(N[C@H]1CCN2C(=O)c3ccccc3NC(=O)[C@H]12)c1cnccn1", "Potency": "inactive"},
      {"smiles": "CCN(CC)c1ccc(NC(=O)Cn2nc(C)n3cccc3c2=O)c(C)c1", "Potency": "inactive"},
      {"smiles": "CC(=O)NCCNC[C@@H]1C=C(C)[C@H](Cc2nnc(-c3cncn3C)o2)C[C@H]1C(C)C", "Potency": "inconclusive: 22.4 µM [inhibitor, single point]"},
      {"smiles": "CC1(CNc2ccccc2)COc2ccc(C(=O)NCCc3ccccn3)cc2N1", "note": "(centres undefined)", "Potency": "inconclusive: 1.58 µM [inhibitor, full curve, poor fit]"},
      {"smiles": "COc1ccc2ncc3c(-c4ccc(C)c(C)c4)nn(CC(=O)NC4CCCC4)c3c2c1", "Potency": "inconclusive: 1.26 µM [inhibitor, partial curve, poor fit]"},
      {"smiles": "Cc1nn(-c2ccccn2)c(C)c1[C@@H]1C=C[C@@H](NC(=O)C2CCCCC2)C1", "Potency": "inconclusive: 14.1 µM [inhibitor, partial curve, poor fit]"},
      {"smiles": "Cc1ccc(-c2cc3c(=O)n(CCNC(=O)c4nn(C)c5ccccc45)ccn3n2)cc1C", "Potency": "inconclusive: 1.12 µM [inhibitor, full curve, poor fit]"},
      {"smiles": "O=C(CC1CCCC1)N1CCOc2ccc(CN3CCCCC3)cc2C1", "Potency": "inconclusive: 1.78 µM [inhibitor, partial curve, poor fit]"},
      {"smiles": "CC1Oc2ccc(NC(=O)c3ccc(Cl)c(Cl)c3)cc2CN(Cc2ccccc2F)C1=O", "note": "(centres undefined)", "Potency": "inconclusive: 1.26 µM [inhibitor, full curve]"},
      {"smiles": "CCOC(=O)c1c(SCC(=O)Nc2cc(Cl)cc(Cl)c2)nc(=O)[nH]c1C", "Potency": "inactive"},
      {"smiles": "O=C1N(Cc2ccc(F)cc2)C[C@H]2CN(Cc3ccc(C(F)(F)F)cc3)CCN12", "Potency": "inactive"},
      {"smiles": "COCc1cc(CC2(NCc3ccccc3)COC2)no1", "Potency": "inactive"},
      {"smiles": "COc1ccc(CC(=O)N2CC3CC(C2)[C@H]2CCCC(=O)N2C3)cc1", "note": "(some centres undefined)", "Potency": "inactive"},
      {"smiles": "O=C(C1CCCC1)N1CC2(CCCN2CC2CC2)Cc2ccccc21", "note": "(centres undefined)", "Potency": "inconclusive: 10 µM [inhibitor, partial curve, poor fit]"},
      {"smiles": "OCC1CN(c2ncccn2)CC12CCN(Cc1ccncc1)CC2", "note": "(centres undefined)", "Potency": "inactive"},
      {"smiles": "O=C(Cc1ccc(F)cc1)N(CC1CCN(Cc2ccccc2F)CC1)CC1CCCO1", "note": "(centres undefined)", "Potency": "inconclusive: 7.94 µM [inhibitor, partial curve]"},
      {"smiles": "COc1ccccc1-c1cc([C@H]2CN3CC[C@H]2C[C@@H]3CNC(C)=O)n(C)n1", "Potency": "inconclusive: 11.2 µM [inhibitor, single point]"},
      {"smiles": "Cc1cc2ncc(C(=O)N3CCC(N4CCCC4)CC3)cn2n1", "Potency": "inactive"},
      {"smiles": "O=C1NCCOCCN(C(=O)c2nccc3ccccc23)[C@H]2CCC[C@@H]12", "Potency": "inactive"},
      {"smiles": "CCCn1c(C)cnc1CCNC(=O)CCC1CCCC1", "Potency": "active: 2.51 µM"},
      {"smiles": "O=C(NCCCN1CCOCC1)c1cccc2c1CCN2C(=O)Nc1ccc(F)cc1", "Potency": "inconclusive: 17.8 µM [inhibitor, single point]"},
      {"smiles": "COCCCNc1nc2c([S+](=O)([O-])c3cccnc3)nnn2c2ccccc12", "Potency": "inconclusive: 5.01 µM [inhibitor, partial curve]"},
      {"smiles": "CCCCN1C(=O)C2(CCN(C(=O)CC(C)(C)C)CC2)Nc2ccccc21", "Potency": "inconclusive: 17.8 µM [inhibitor, single point]"},
      {"smiles": "COCC1CN(S(=O)(=O)Cc2ccc(C)c(C)c2)CC12CCNCC2", "note": "(centres undefined)", "Potency": "inconclusive: 11.2 µM [inhibitor, single point]"},
      {"smiles": "Cc1ccc(-n2nc(C(=O)N3CCN(c4cc(Cl)ccc4C)CC3)c3c4ccccc4n(C)c3c2=O)cc1", "Potency": "inactive"},
      {"smiles": "Cc1ccc(Cl)cc1-n1ncc2c(Nc3cccc(C)c3C)ncnc21", "Potency": "inconclusive: 4.47 µM [inhibitor, single point]"},
      {"smiles": "COc1ccc(C(=O)N2CCC3(CC2)NC(=O)N(Cc2ccccc2Cl)C3=O)cc1", "Potency": "inactive"},
      {"smiles": "Cc1noc(-c2ccc3c(c2)OCO3)c1C(=O)NCCC(c1ccccc1)c1ccccc1", "Potency": "inconclusive: 7.08 µM [inhibitor, partial curve, poor fit]"},
      {"smiles": "O=C(c1ccc(CSc2nc3ccncc3n2Cc2ccccc2)cc1)N1CCCCCC1", "Potency": "inconclusive: 11.2 µM [inhibitor, partial curve]"},
      {"smiles": "COC(=O)[C@@H](Cc1cccnc1)NC(=O)[C@H]1CN(S(=O)(=O)c2ccccc2)CCN1C(=O)c1cccs1", "Potency": "inactive"},
      {"smiles": "Cc1ccc(C2c3[nH]c4ccccc4c3CCN2C(=O)CCC2CCCC2)cc1", "note": "(centres undefined)", "Potency": "inconclusive: 11.2 µM [inhibitor, single point]"},
      {"smiles": "O=C1CC(c2ccccc2)N(S(=O)(=O)c2ccc3c(c2)CCC3)CCCCCN1", "note": "(centres undefined)", "Potency": "inconclusive: 12.6 µM [inhibitor, single point]"}
    ]}
  ]
}
